In PubChem BioAssay AID1745845 (National Center for Advancing Translational Sciences (NCATS), 2022):
Where “and” joins values, the source holds several entries; their conditions need not be identical. Equal entries are not always repeated. In all, about 360,000 compounds went through this assay and about 2,600 (0.72%) were called active. The shares of active, inactive and inconclusive entries below differ from those in the screen. Calls follow the shape of the dose curve; as a rule, active = well fitted inhibition curve with a large enough effect; inconclusive = small, poorly fitted or top-dose-only effect; inactive = no such curve, though single readings can be large or run the other way. Potencies of inconclusive entries are doubtful fits and often do not repeat. Where a structure was tested more than once in an assay, its records may differ in their call.

Assay: Primary qHTS for Inhibitors of ATXN expression; also: nearly all actives have a fitted effect of over 55% in size
Conditions: HEK-293 ATXN2-luciferase reporter, luminescence, 24 h; activity change, negative = inhibition: at 57 µM (top of the series)
Procedure, shortened: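 qHTS (up to 57 uM final) was run with 24 h compound exposure of reporter cells at 37 °C. Each well was multiplexed: SteadyGlo luminescence measured ATXN2-luciferase expression after a fluorogenic Gly-Phe-AFC viability readout (25 uM final).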
% is scaled to controls: 0 for no effect and ±100 for the full control effect; potency is read from the fitted curve at half-maximal effect; tags tell the direction and shape of the fitted curve.

Potency, active:
Cc1ccc(/C=C2/SC(=S)N(CCCC(=O)Nc3ccc(O)cc3)C2=O)cc1 2.51 µM, COc1ccc(C)cc1NC(=O)CSc1ccc(-c2ccccn2)nn1 14.1 µM, Cc1ccc(/C=N/NC(=O)C2=NNC(c3ccccc3)(c3ccccc3)C2)c(O)c1 3.16 µM, NC(=O)NO 7.69 µM, CN(C)CCNc1ncnc2c1sc1nc(N3CCOCC3)c3c(c12)CC(C)(C)SC3 20 µM, Cc1cc(OCC(=O)Nc2ccc(Br)cc2)cc2c1C(=O)CC(C)(C)O2 12.6 µM, CC(C)c1ccc(S(=O)(=O)c2cc3cc(Br)ccc3oc2=O)cc1 20 µM

Potency, inconclusive:
Cc1ccc2nc(-c3ccco3)c(CC(C)(C)C)n2c1 39.8 µM [inhibitor, single point], Cc1cccc(/C=C/c2onc(C)c2[N+](=O)[O-])n1 22.4 µM [inhibitor, partial curve, poor fit], Cc1ccc(-c2nnc(Nc3ccc(Cl)c(Cl)c3)c3ccccc23)cc1S(=O)(=O)NCCO 31.6 µM [inhibitor, partial curve, poor fit], COc1ccc(-c2nnc(N3CCCCC3)c3ccccc23)cc1 35.5 µM [inhibitor, single point], CC(C)C(N)c1csc(NC(=O)Nc2ccc(OC(F)(F)F)cc2)n1 (stereo not drawn) 25.1 µM [inhibitor, single point], COc1ccc(NCC(=O)Nc2cccc(S(=O)(=O)N3CCCC3)c2)cc1Cl 33.6 µM [inhibitor, single point], Cc1cccc(Nc2nnc(-c3ccc(N4CCOCC4)c([N+](=O)[O-])c3)c3ccccc23)c1 7.08 µM [inhibitor, partial curve, poor fit], COc1ccc(C(=O)/C=C/c2ccc(OC)c(COc3ccc(F)cc3)c2)cc1 28.2 µM [inhibitor, partial curve, poor fit], Clc1ccccc1C(c1ccccc1)(c1ccccc1)n1ccnc1 35.5 µM [inhibitor, single point] and 25.1 µM [inhibitor, partial curve] and 24.3 µM [inhibitor, partial curve], CC(=O)c1ccc(NC(=O)c2cnn3ccccc23)cc1 13.4 µM [inhibitor, partial curve, poor fit], S=C(NCCCc1cnc[nH]1)NCCCN(Cc1ccc(Cl)cc1)c1ccc(Br)cn1 2.51 µM [inhibitor, partial curve, poor fit], COC(=O)Cn1c(=NC(=O)c2nc3ccccc3s2)sc2cc(S(N)(=O)=O)ccc21 15.8 µM [inhibitor, partial curve], O=[N+]([O-])c1ccc(O)c(/C=N/Nc2ccc(Cl)nn2)c1 1.12 µM [inhibitor, full curve, poor fit], CCOC(=O)c1ccc(Nc2nc(-c3cccnc3)nc3ccccc23)cc1 31.6 µM [inhibitor, single point], COc1ccc(S(=O)(=O)N(CC(=O)NCc2ccccc2)c2ccc(C)cc2)cc1OC 39.8 µM [inhibitor, single point], Cc1ccc(NC(=O)c2sc3ncn(CC(=O)N4CCOCC4)c(=O)c3c2C)c(Br)c1 28.2 µM [inhibitor, single point], Cc1cccc(C)c1OCc1nnc(NC(=O)CSc2ccc(Cl)cc2)s1 28.2 µM [inhibitor, single point], Nc1c(C(=O)Nc2ccccc2)c2nc3ccccc3nc2n1CCCN1CCOCC1 17.8 µM [inhibitor, partial curve, poor fit], COc1ccc(-c2noc(CSc3nnc(-c4ccncc4)n3-c3ccc(C)cc3)n2)cc1 35.5 µM [inhibitor, single point], CC(C)c1ccc(NC(=O)c2cc(S(=O)(=O)NCc3ccccc3Cl)ccc2F)cc1 31.6 µM [inhibitor, single point], CN(C)CCCN1C(=O)c2cccc3c(Br)ccc(c23)C1=O 11.9 µM [inhibitor, partial curve, poor fit], O=C(c1ccc(Cl)c(Cl)c1)N1CCC(=O)N([C@H](COCc2cccc(C(F)(F)F)c2)Cc2ccccc2)CC1 31.6 µM [inhibitor, single point], COc1ccc(C2NCCc3c2[nH]c2ccccc32)cc1CN1CCc2cc(OC)c(OC)cc2C1C (stereo not drawn) 22.4 µM [inhibitor, partial curve, poor fit], CCOC(=O)c1c(NC(=S)NC(=O)c2ccc(Cn3cc(Cl)cn3)o2)sc2c1CCCCC2 15.8 µM [inhibitor, partial curve], CCC(C)Nc1nc(-c2ccccn2)nc2ccccc12 (stereo not drawn) 3.16 µM [inhibitor, full curve, poor fit], S=C(NCCCCc1ccccc1)NCc1ccccc1 22.4 µM [inhibitor, partial curve], COc1ccc(N2CCC(CNC(=S)Nc3cc(C)cc(C)c3)C2)cc1 (stereo not drawn) 22.4 µM [inhibitor, single point], O=[N+]([O-])c1cc(C(F)(F)F)ccc1NCCNC(=S)Nc1ccc(Cl)cc1 17.8 µM [inhibitor, partial curve, poor fit], CC(C)Cn1c(N)c(C(=O)COC(=O)c2ccc(Br)cc2)c(=O)n(C)c1=O 28.2 µM [inhibitor, partial curve, poor fit], COc1c(/C=N/Nc2ccc([N+](=O)[O-])cc2[N+](=O)[O-])c(C)nn1-c1ccccc1 25.1 µM [inhibitor, single point], COc1cc(C(=O)OCC(=O)Nc2sccc2C(N)=O)cc(OC)c1OC 37.7 µM [inhibitor, partial curve, poor fit], O=C(NCCc1ccccc1)C(=O)NCC(c1cccnc1)N1CCN(c2ccccc2F)CC1 (stereo not drawn) 14.1 µM [inhibitor, partial curve], COc1ccccc1Nc1nn2c(=O)c3ccc(C(=O)NCc4ccc(F)cc4)cc3nc2s1 1.58 µM [inhibitor, full curve], CCn1c(COc2cc(C)cc(C)c2)nnc1SCC(=O)N1CCN(c2ccccc2)CC1 3.55 µM [inhibitor, partial curve, poor fit], CC(C)=CCC/C(C)=C/CNC(=O)C[C@H]1C[C@H](C(=O)N(C(C)C)C(C)C)[C@@]2(C)c3[nH]c4cc(-c5ccco5)ccc4c3CCN2C1=O 39.8 µM [inhibitor, single point], O=C(C1CCC(Cn2c(=O)c3sccc3n(Cc3cccc(F)c3)c2=O)CC1)N1CCCCC1 (stereo not drawn) 25.1 µM [inhibitor, single point], C=C(C)C(O)CC/C(C)=C/Cc1c(O)ccc(C(=O)/C=C/c2ccc(O)cc2)c1O (stereo not drawn) 31.6 µM [inhibitor, single point], Cc1nnc(Sc2cc(NCCCO)c([N+](=O)[O-])c3nonc23)s1 23.8 µM [inhibitor, partial curve, poor fit], COc1ccc(C(=O)NC(=S)N(C)Cc2ccccc2)cc1Br 39.8 µM [inhibitor, single point], Cc1ccc(Nc2nc(-c3cccnc3)nc3ccccc23)cc1 28.2 µM [inhibitor, single point]

Activity change, negative = inhibition, inconclusive:
Cc1cc(C)n(-c2nc3ccccc3c(=O)n2OCC#N)n1 -80.5% [inhibitor]

Activity change, negative = inhibition, inactive:
CS(=O)(=O)c1ccc(Nc2nc(C(N)COCc3ccccc3)cs2)cc1 (stereo not drawn) 5.58%, COc1ccc(CC(=O)Nc2cc(S(=O)(=O)N3CCCCC3)ccc2C)cc1 -6.83%, COc1ccc2[nH]c(=O)c(CN(C(=O)C(C)C)c3ccccc3OC)cc2c1 -11%, COc1ccc(OC)c(/C=C/c2nc3ccccc3[nH]c2=O)c1 -9.49%, Cc1ccc2c(=O)n3c(nc2c1)C(C)NC(=O)c1cccnc1-3 (stereo not drawn) 3.88%, C=Cc1ccc(CN2C(=O)c3ccccc3Sc3ccc(C(=O)OCc4ccco4)cc32)cc1 3.08%, CCOC(=O)N1CCN(C(=O)CSC2=NS(=O)(=O)c3cc(F)ccc3N2)CC1 2.25%, O=C(CCN1CCc2ccccc2C1)Nc1ccccc1 4.03%, Cc1ccn2c(Cc3ccccc3)c(-c3ccc(Br)cc3)nc2c1 0%, COC(=O)c1ccc2nc(-c3ccccc3)c(Cc3ccccc3OC)n2c1 -1.41%, COc1ccc(CN(C(=O)CCC(=O)N2CCCCC2)c2nccs2)cc1OC 0.88%, CCc1nnc(NC(=O)C2CCN(C(=O)c3ccco3)CC2)s1 -4.43%, O=C(c1cccc(Cl)c1)N1CCN(c2ccc3c(c2)C2CC3CCN2C(=O)OCc2ccccc2)CC1 (stereo not drawn) 0.374%, CCOC(=O)C/C(C)=N/NC(=O)C1CC1(c1ccccc1)c1ccccc1 (stereo not drawn) 1.93%, CC(C)C[C@H]1C(=O)N2CCC[C@H]2[C@]2(O)O[C@](NC(=O)C3C=C4c5cccc6[nH]c(Br)c(c56)C[C@H]4N(C)C3)(C(C)C)C(=O)N12 (stereo partly drawn) -35.1%
